{"source": "the supplement of paper PMC9446081", "note": "The campaign covered roughly 39,000 compounds. About 220 (0.56%) showed activity. The list shows a part of the results.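 Note: static incubation at 37 °C against the wild-type strain, values averaged over two biological replicates.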"}
{"test_system": "Escherichia coli K-12 BW25113", "experiment": "relative growth (OD600 normalised to plate interquartile mean) (fraction); higher = less growth inhibition, active = 0.2 or less", "details": "50 µM; LB; incubation time: overnight (16-24 h)"}
{"compound": "Cc1cc(OC(=O)c2c(C)cc(O)cc2O)cc(O)c1C(=O)O", "relative growth": "inactive: 0.877"}
{"compound": "C[C@@H]1CN([C@H](C)CO)C(=O)c2cc(NS(=O)(=O)c3ccc(F)cc3)ccc2O[C@@H](C)CCCCO[C@H]1CN(C)C(=O)Nc1ccc2c(c1)OCO2", "relative growth": "inactive: 1"}
{"compound": "O=C([O-])c1cc(=O)c2c(OCC(O)COc3cccc4oc(C(=O)[O-])cc(=O)c34)cccc2o1.[Na+].[Na+]", "relative growth": "inactive: 1.09"}
{"compound": "Cc1cc(N)n(-c2nc(=O)c(C)c(C)[nH]2)n1", "relative growth": "inactive: 0.75"}
{"compound": "COc1cccc(S(=O)(=O)N[C@H]2CC[C@@H](CC(=O)NC3CCC3)O[C@H]2CO)c1", "relative growth": "inactive: 1.02"}
{"compound": "CCc1nc2ccccc2c(C(=O)Nc2cccc(Cl)c2)c1C", "relative growth": "inactive: 1.01"}
{"compound": "C[C@H]1CN([C@@H](C)CO)S(=O)(=O)c2ccc(C#Cc3ccccc3F)cc2O[C@H]1CN(C)C(=O)c1ccc2c(c1)OCO2", "relative growth": "inactive: 1.06"}
{"compound": "Cc1noc(C)c1S(=O)(=O)N(C)C[C@H]1Oc2ccc(NS(=O)(=O)c3cn(C)cn3)cc2CC(=O)N([C@H](C)CO)C[C@H]1C", "relative growth": "inactive: 0.972"}
{"compound": "C[C@H]1CN([C@@H](C)CO)C(=O)Cc2cc(NS(=O)(=O)c3ccc(F)cc3)ccc2O[C@H]1CN(C)S(=O)(=O)c1cn(C)cn1", "relative growth": "inactive: 0.995"}
{"compound": "C[C@@H]1CN([C@@H](C)CO)C(=O)c2cc(C#Cc3ccccc3F)cnc2O[C@@H]1CN(C)C(=O)Cc1ccncc1", "relative growth": "inactive: 0.956"}
{"compound": "C[C@@H]1CN([C@H](C)CO)C(=O)c2cc(C3=CCCCC3)cnc2O[C@@H]1CN(C)S(=O)(=O)c1cn(C)cn1", "relative growth": "inactive: 0.968"}
{"compound": "Cc1noc(C)c1NC(=O)Nc1ccc2c(c1)C(=O)N([C@H](C)CO)C[C@H](C)[C@H](CN(C)C(=O)Cc1ccccc1)OCCCC[C@@H](C)O2", "relative growth": "inactive: 1.03"}
{"compound": "C[C@H]1CN([C@@H](C)CO)C(=O)c2cccc(NS(C)(=O)=O)c2O[C@H]1CN(C)C(=O)Nc1ccc(F)cc1", "relative growth": "inactive: 0.979"}
{"compound": "Cn1nnnc1SCC(=O)NC(C)(C)C", "relative growth": "inactive: 1.02"}
{"compound": "O=C(c1cccnc1)N1C[C@H]2[C@@H](c3ccccc31)[C@H](CO)N2C(=O)CN1CCOCC1", "relative growth": "inactive: 1.01"}
{"compound": "C[C@@H]1CN([C@@H](C)CO)C(=O)c2cc(NS(C)(=O)=O)ccc2O[C@@H](C)CCCCO[C@H]1CN(C)S(=O)(=O)c1ccc(F)cc1", "relative growth": "inactive: 1.02"}
{"compound": "CC(C)(O)C#Cc1ccc([C@H]2[C@H](CO)N3CCCCN(S(C)(=O)=O)C[C@@H]23)cc1", "relative growth": "inactive: 1.03"}
{"compound": "C[C@H]1CN([C@@H](C)CO)C(=O)Cc2cc(NC(=O)NC3CCCCC3)ccc2O[C@@H]1CN(C)Cc1ccc(-c2ccccc2)cc1", "relative growth": "inactive: 0.984"}
{"compound": "C[C@@H]1CCCCO[C@@H](CN(C)S(=O)(=O)c2ccc(F)cc2)[C@@H](C)CN([C@H](C)CO)C(=O)c2cc(NS(=O)(=O)c3cn(C)cn3)ccc2O1", "relative growth": "inactive: 1.01"}
{"compound": "COCC#Cc1ccc2c(c1)O[C@@H](CN(C)C(=O)C1CCCCC1)[C@H](C)CN([C@H](C)CO)S2(=O)=O", "relative growth": "inactive: 0.988"}
{"compound": "COc1ccc(NC(=O)N(C)C[C@H]2Oc3ccc(NC(=O)CCCCCC(=O)Nc4ccccc4N)cc3CC(=O)N([C@H](C)CO)C[C@H]2C)cc1", "relative growth": "inactive: 0.96"}
{"compound": "CCOC(=O)[C@H]1C/C=C/C[C@H](C(=O)OCC)C(=O)O[C@H]2[C@@H](OC)O[C@H](CO)[C@@H](OC(=O)Nc3ccc4c(c3)OCO4)[C@@H]2OC1=O", "relative growth": "inactive: 1.05"}
{"compound": "C[C@@H]1CN([C@H](C)CO)C(=O)c2cc(NS(=O)(=O)c3cccs3)ccc2O[C@@H](C)CCCCO[C@H]1CN(C)Cc1ccc(C(F)(F)F)cc1", "relative growth": "inactive: 1.01"}
{"compound": "Cc1noc(C)c1NC(=O)N(C)C[C@@H]1Oc2c(NS(=O)(=O)c3cn(C)cn3)cccc2C(=O)N([C@@H](C)CO)C[C@H]1C", "relative growth": "inactive: 0.988"}
{"compound": "C[C@H]1CN([C@@H](C)CO)C(=O)Cc2cc(NC(=O)NC3CCCCC3)ccc2O[C@H]1CN(C)Cc1ccc(Oc2ccccc2)cc1", "relative growth": "inactive: 1.03"}
{"compound": "C[C@H](CO)N1C[C@H](C)[C@@H](CN(C)C(=O)NC2CCCCC2)OCCCC[C@H](C)Oc2ccc(NC(=O)Nc3cccc4ccccc34)cc2C1=O", "relative growth": "inactive: 1.02"}
{"compound": "O=C(C[C@H]1C[C@@H]2c3cc(NC(=O)C4CCOCC4)ccc3O[C@@H]2[C@@H](CO)O1)NCCN1CCCCC1", "relative growth": "inactive: 1.01"}
{"compound": "C[C@H]1CN([C@@H](C)CO)C(=O)c2cc(NC(=O)Nc3cccc4ccccc34)ccc2O[C@H]1CN(C)C(=O)Nc1cccc2ccccc12", "relative growth": "inactive: 1.02"}
{"compound": "C[C@@H]1CCCCO[C@@H](CN(C)C(=O)Nc2ccc(F)cc2)[C@@H](C)CN([C@@H](C)CO)C(=O)c2cc(NC(=O)Cc3ccccc3)ccc2O1", "relative growth": "inactive: 1.05"}
{"compound": "COc1ccc(S(=O)(=O)N(C)C[C@H]2Oc3ccc(NC(=O)NC(C)C)cc3C(=O)N([C@H](C)CO)C[C@H]2C)cc1", "relative growth": "inactive: 0.99"}
{"compound": "C[C@H]1[C@@H](c2ccccc2)OC(=O)CC[C@H](O)[C@@H](O)C[C@@H](CC(=O)NCc2ccc(Cl)cc2)C(=O)N1C", "relative growth": "inactive: 0.984"}
{"compound": "CCCCCCC#C[Si](O[C@H](c1ccccc1)c1cn([C@H](C)c2ccccc2)nn1)(C(C)C)C(C)C", "relative growth": "inactive: 0.983"}
{"compound": "O=C(/C=C/c1cccc(-c2cn(CC(=O)N3CCC4(CC3)C(=O)NCN4c3ccccc3)nn2)c1)NO", "relative growth": "inactive: 1"}
{"compound": "Cc1noc(C)c1NC(=O)N[C@H]1C=C[C@@H](CC(=O)N2CCN(C)CC2)O[C@@H]1CO", "relative growth": "inactive: 0.991"}
{"compound": "Cc1noc(C)c1NC(=O)Nc1ccc2c(c1)C(=O)N([C@H](C)CO)C[C@@H](C)[C@@H](CN(C)S(=O)(=O)c1ccccc1)OCCCC[C@H](C)O2", "relative growth": "inactive: 1.01"}
{"compound": "COc1cccc(S(=O)(=O)Nc2ccc3c(c2)OC[C@@H](C)N(C(=O)Cc2cccnc2)C[C@H](C)[C@@H](OC)CN(C)C3=O)c1", "relative growth": "inactive: 0.916"}
{"compound": "C[C@H](O)C#Cc1ccc2c(c1)O[C@@H](CN(C)C(=O)c1ccccc1)[C@H](C)CN([C@@H](C)CO)S2(=O)=O", "relative growth": "inactive: 0.99"}
{"compound": "C[C@@H]1CN([C@@H](C)CO)C(=O)c2cc(N(C)C)ccc2O[C@@H]1CN(C)S(=O)(=O)c1ccc(Cl)cc1", "relative growth": "inactive: 1.03"}
{"compound": "C[C@H](CO)N1C[C@H](C)[C@@H](CN(C)S(=O)(=O)c2ccc(Cl)cc2)OCCCC[C@H](C)Oc2ccc(NC(=O)C3CCCCC3)cc2C1=O", "relative growth": "inactive: 1.03"}
{"compound": "C[C@@H]1CN([C@H](C)CO)C(=O)Cc2cc(NC(=O)CCC(F)(F)F)ccc2O[C@@H]1CN(C)C(=O)Nc1ccc(C(F)(F)F)cc1", "relative growth": "inactive: 1.03"}
{"compound": "Cc1noc(C)c1NC(=O)Nc1ccc2c(c1)CC(=O)N([C@H](C)CO)C[C@@H](C)[C@H](CN(C)Cc1ccc(C(=O)Nc3ccccc3N)cc1)O2", "relative growth": "inactive: 0.993"}
{"compound": "N#CCC12CC3CC(CC(C3)C1)C2", "relative growth": "inactive: 0.984"}
{"compound": "C[C@@H]1CN([C@@H](C)CO)C(=O)c2cc(NC(=O)CCN3CCOCC3)ccc2O[C@@H]1CN(C)S(=O)(=O)c1ccc(Cl)cc1", "relative growth": "inactive: 1.01"}
{"compound": "CC(C)NC(=O)Nc1ccc2c(c1)C(=O)N([C@@H](C)CO)C[C@@H](C)[C@H](CN(C)Cc1ccc3c(c1)OCO3)O2", "relative growth": "inactive: 0.992"}
{"compound": "C[C@@H]1CN([C@H](C)CO)C(=O)c2cccc(NC(=O)Nc3ccccc3)c2O[C@H]1CN(C)CC1CCCCC1", "relative growth": "inactive: 0.93"}
{"compound": "C[C@H]1CN([C@@H](C)CO)C(=O)c2cccc(NC(=O)Nc3ccc(F)cc3)c2O[C@@H]1CN(C)S(=O)(=O)c1cn(C)cn1", "relative growth": "inactive: 1.02"}
{"compound": "CC(=O)N1[C@@H]2Cn3c(ccc(-c4ccccc4)c3=O)[C@H]1[C@@H](C(=O)NCCCN1CCOCC1)[C@@H]2CO", "relative growth": "inactive: 0.99"}
{"compound": "CN1CCN(CCCN2c3ccccc3Sc3ccc(C(F)(F)F)cc32)CC1.Cl.Cl", "relative growth": "inactive: 1.02"}
{"compound": "COc1ccc(CN(C)C[C@@H]2Oc3c(NC(=O)CCCCCC(=O)Nc4ccccc4N)cccc3C(=O)N([C@H](C)CO)C[C@H]2C)cc1", "relative growth": "inactive: 0.996"}
{"compound": "CO[C@@H](CN(C)C(=O)C1CCOCC1)[C@H](C)CN(C(=O)Nc1ccc(C(F)(F)F)cc1)[C@@H](C)CO", "relative growth": "inactive: 0.955"}
{"compound": "CC(C)N1C[C@@H](C)[C@H](CN(C)Cc2ccc(Oc3ccccc3)cc2)Oc2c(C(=O)O)cccc2C1=O", "relative growth": "inactive: 1"}
{"compound": "CCCCCCCC(=O)N[C@H](CN1CCCC1)[C@H](O)c1ccc2c(c1)OCCO2", "relative growth": "inactive: 1.01"}
{"compound": "COC(=O)C1=C(C)NC(C)=C(C(=O)OC)C1c1ccccc1[N+](=O)[O-]", "relative growth": "inactive: 0.912"}
{"compound": "C[C@@H]1CN([C@@H](C)CO)C(=O)c2cc(NC(=O)c3ccncc3)ccc2O[C@H]1CN(C)S(=O)(=O)c1cn(C)cn1", "relative growth": "inactive: 1.03"}
{"compound": "COc1ccc(S(=O)(=O)N(C)C[C@H]2Oc3c(NS(=O)(=O)c4c(C)noc4C)cccc3C(=O)N([C@H](C)CO)C[C@H]2C)cc1", "relative growth": "inactive: 0.997"}
{"compound": "COC12C(COC(N)=O)C3=C(C(=O)C(C)=C(N)C3=O)N1CC1NC12", "note": "(stereo not given)", "relative growth": "active: 0.0503"}
{"compound": "COc1ccc(S(=O)(=O)Nc2ccc3c(c2)C(=O)N([C@@H](C)CO)C[C@H](C)[C@H](CN(C)CC2CC2)O3)cc1", "relative growth": "inactive: 0.991"}
{"compound": "Cc1cc(C(=O)Nc2cccc3c2O[C@H](CN(C)Cc2ccc(Oc4ccccc4)cc2)[C@H](C)CN([C@H](C)CO)C3=O)n(C)n1", "relative growth": "inactive: 0.984"}
{"compound": "C[C@H](CO)N1C[C@H](C)[C@@H](CN(C)C(=O)Nc2ccc3c(c2)OCO3)Oc2ncc(-c3ccncc3)cc2C1=O", "relative growth": "inactive: 1.01"}
{"compound": "CC/N=C1\\S[C@@H](CC(=O)NC)C(=O)N1CC", "relative growth": "inactive: 1.01"}
